From PubChem BioAssay AID2100 (National Center for Advancing Translational Sciences (NCATS), 2009)
Out of some 300,000 compounds screened, about 1,200 (0.4%) were called active. Inconclusive results, whose numbers are uncertain, are shown with a selection of clear calls. The call rests on the fitted dose curve; in most records, active means well fitted inhibition curve with a large enough effect; inconclusive means small, poorly fitted or top-dose-only effect, or another doubt; inactive means no such curve, though single readings can be large or run the other way. Potencies of inconclusive entries are doubtful fits and often do not repeat.
Potency means the concentration at half of the fitted maximal effect.

The compounds below were run against Lysosomal alpha-glucosidase (Homo sapiens) (UniProt P10253) (assay: qHTS Assay for Inhibitors and Activators of Human alpha-Glucosidase Cleavage of Glycogen). Conditions: recombinant GAA, glycogen substrate, Amplex Red glucose oxidase fluorescence; series mostly up to 76.4 µM.
Summary of the method: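 qHTS, 1536-well; enzyme 4 nM final; cpd up to 77 uM; substrate bovine liver glycogen 30 ug; 50 mM citrate/phosphate pH 5.0, 0.01% Tween-20; 37 C, 40 min; Amplex Red detection 45 min RT; Hill fit → AC50.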
With `O=C(Nc1ccc(F)cc1)Nc1ccc(N2CCCC2)c(S(=O)(=O)Nc2ccccc2Cl)c1` the Potency was inconclusive: 39.5 µM [inhibitor, single point]. `O=C(c1ccccc1)N1CCN(c2ccc(NCc3ccc4c(c3)OCO4)cc2)CC1` was tested, and the Potency was active: 28.2 µM. For `Cc1ccc(OCCN(C)C)c([N+](=O)[O-])c1`, the Potency was inconclusive: 35.5 µM [activator, single point]. `O=C(c1ccc2ncsc2c1)N1CCN(c2ccccc2Cl)CC1` was tested, and the Potency was “inactive”. `CCc1n[nH]c(=S)n1/N=C/c1ccc(N(CC)CC)cc1` was tested, and the Potency was inconclusive: 10 µM [inhibitor, full curve, poor fit]. `Nc1nnc(CC(=O)N/N=C/c2cc([N+](=O)[O-])cc(Br)c2O)s1` was tested, and the Potency was inconclusive: 35.5 µM [inhibitor, single point]. `Cc1ccc(Nc2c(-c3cccs3)nc3nc(C)cc(C)n23)cc1` was tested, and the Potency was inconclusive: 3.55 µM [inhibitor, full curve]. For `N#Cc1c(NC(NC(=O)c2ccco2)C(=O)c2ccccc2)sc2c1CCCC2` (stereo not given), the Potency was active: 22.4 µM. For `CCOc1ccc(CCNC(=O)c2cn(CC)c3ccc(S(=O)(=O)N4CCc5ccccc5C4)cc3c2=O)cc1OCC`, the Potency was “inactive”. With `Cc1cccc(C(O)(C(=O)NNc2ccc3ccccc3n2)c2cccc(C)c2)c1` the Potency was inconclusive: 35.5 µM [inhibitor, single point]. For `CC(=O)/C(N=Nc1cc(C)ccc1O)=C(\C)O`, the Potency was inconclusive: 2.24 µM [inhibitor, partial curve, poor fit]. `CCN(CCC#N)c1ccc(/C=N/Nc2nc(C)cc(=O)[nH]2)c(C)c1` was tested, and the Potency was inconclusive: 15.8 µM [inhibitor, partial curve]. In the case of `Cc1cccc2sc(NNC(=O)c3ccc(S(=O)(=O)N4CC(C)CC(C)C4)cc3)nc12` (stereo not given), the Potency is reported as “inactive”. In the case of `O=c1c2ccccc2nc(COc2ccccc2)n1/N=C/c1ccc(O)c(O)c1`, the Potency is reported as active: 15.8 µM. For `COc1cc(C2c3c([nH]c(=O)[nH]c3=O)Nc3ccc4ccccc4c32)ccc1O` (stereo not given), the Potency was inconclusive: 22.4 µM [inhibitor, partial curve]. With `O=C(Nc1cccc(F)c1)c1ccc2snnc2c1` the Potency was “inactive”. For `N#Cc1nc(-c2cccs2)oc1NCc1ccc(Cl)cc1`, the Potency was inconclusive: 20 µM [inhibitor, partial curve]. With `O=C(CSc1ccccn1)Nc1cccc([N+](=O)[O-])c1` the Potency was “inactive”. `O=S(=O)(Nc1cccc(S(=O)(=O)N2CCOCC2)c1)c1ccc2c(c1)OCCO2` was tested, and the Potency was inconclusive: 22.2 µM [inhibitor, partial curve]. `Cc1ccc(Nc2c(-c3c[nH]c4ccccc34)nc3cc(C)ccn23)cc1` was tested, and the Potency was inconclusive: 14.1 µM [inhibitor, partial curve].
